In patent publication US11178870B2 (priority 2017, dated 2021):

How the values were obtained:
Format in all cases: in vivo
Alternaia brassicicola = assay: Test Example C: Alternaria sooty spot on cabbage; conditions: for Test C control value: Alternaria sooty spot on cabbage; for control value, Test C (Alternaria sooty spot on cabbage): Table 7, Test C; for Test C control value (Alternaria sooty spot on cabbage): class of control value, Table 7
Plasmopara viticola = assay: Test Example G: Downy mildew on vine; conditions: for Test G control value: Downy mildew on vine, 250 ppm sprayed, 7 to 10 days after inoculation; for Test G control value / Test G control value (downy mildew on vine): 2.5 ml/pot; for control value, Test G (downy mildew on vine): 250 ppm sprayed (2.5 ml/pot) before inoculation, assessed 7 to 10 days after inoculation; for Test G control value (downy mildew on vine): 250 ppm spray, investigated 7 to 10 days after inoculation
[1] = tested on: Blumeria graminis f. sp. hordei; assay: Test Example D: Powdery mildew on barley; conditions: for control value, Test D (powdery mildew on barley): Table 7, Test D; for Test D control value (powdery mildew on barley): class of control value, Table 7
Puccinia recondita = assay: Test Example E: Brown rust on wheat; conditions: for control value, Test E (brown rust on wheat): Table 7, Test E; for Test E control value (brown rust on wheat): class of control value, Table 7
Botrytis cinerea = assay: Test Example B: Gray mold on tomato; conditions: Table 7, Test B

| SMILES | control value, Test C (Alternaria sooty spot on cabbage) (Alternaia brassicicola) | control value, Test D (powdery mildew on barley) [1] | control value, Test E (brown rust on wheat) (Puccinia recondita) | control value, Test G (downy mildew on vine) (Plasmopara viticola) | Test C control value (Alternaria sooty spot on cabbage) (Alternaia brassicicola) | Test G control value (downy mildew on vine) (Plasmopara viticola) | also measured |
| --- | --- | --- | --- | --- | --- | --- | --- |
| CCn1c(-c2c(F)cccc2F)c(-c2cccnc2Cl)cc(C)c1=O [Compound 66] |  |  |  |  |  |  | Test C control value (Alternaia brassicicola): H (H shows the control value more than 50%); Test G control value (Plasmopara viticola): H (H shows the control value more than 50%) |
| CCn1c(-c2ccc(F)cc2F)c(-n2cc(Cl)cn2)cc(Cl)c1=O [Compound 148] |  |  |  |  |  |  | Test C control value (Alternaia brassicicola): H (H shows the control value more than 50%); Test D control value ([1]; Powdery mildew on barley): H (H shows the control value more than 50%); Test E control value (Puccinia recondita; Brown rust on wheat): H (H shows the control value more than 50%); Test G control value (Plasmopara viticola): L (L shows the control value of 50% or less) |
| Cc1cnn(-c2cc(Cl)c(=O)n(CC(F)F)c2-c2c(F)cccc2F)c1Cl [Compound 190] | H (H shows the control value more than 50%) | H (H shows the control value more than 50%) | H (H shows the control value more than 50%) | L (L shows the control value of 50% or less) |  |  |  |
| CCn1c(-c2c(F)cccc2Cl)c(-n2cc(Cl)cn2)ccc1=O [Compound 197] | H (H shows the control value more than 50%) |  | H (H shows the control value more than 50%) | L (L shows the control value of 50% or less) |  |  | control value, Test B (gray mold on tomato) (Botrytis cinerea): H (H shows the control value more than 50%) |
| CCn1c(-c2c(F)cccc2Cl)c(-n2cc(Cl)cn2)cc(Cl)c1=O [Compound 198] | H (H shows the control value more than 50%) |  | L (L shows the control value of 50% or less) | L (L shows the control value of 50% or less) |  |  | control value, Test B (gray mold on tomato) (Botrytis cinerea): L (L shows the control value of 50% or less) |
| CCn1c(-c2ccccc2F)c(-n2cc(C)cn2)cc(Br)c1=O [Compound 260] | H (H shows the control value more than 50%) | L (L shows the control value of 50% or less) | L (L shows the control value of 50% or less) | L (L shows the control value of 50% or less) |  |  |  |
| CCn1c(-c2ccc(F)cc2F)c(-n2ncc(C)c2Br)cc(Br)c1=O [Compound 270] | H (H shows the control value more than 50%) | H (H shows the control value more than 50%) | H (H shows the control value more than 50%) | L (L shows the control value of 50% or less) |  |  |  |
| O=c1ccc(-n2cc(Cl)cn2)c(-c2ccccc2Br)n1CC(F)F [Compound 289] | H (H shows the control value more than 50%) | H (H shows the control value more than 50%) | H (H shows the control value more than 50%) | L (L shows the control value of 50% or less) |  |  |  |
| Cc1cnn(-c2cc(Br)c(=O)n(CC(F)F)c2-c2ccccc2C)c1 [Compound 304] | H (H shows the control value more than 50%) | H (H shows the control value more than 50%) | L (L shows the control value of 50% or less) | L (L shows the control value of 50% or less) |  |  |  |
| CCn1c(-c2ccc(F)cc2Cl)c(-n2cc(C)cn2)ccc1=O [Compound 334] | H (H shows the control value more than 50%) | H (H shows the control value more than 50%) | H (H shows the control value more than 50%) | L (L shows the control value of 50% or less) |  |  |  |
| CCn1c(-c2ccc(F)cc2Cl)c(-n2cc(C)cn2)cc(Br)c1=O [Compound 335] | H (H shows the control value more than 50%) | H (H shows the control value more than 50%) | H (H shows the control value more than 50%) | H (H shows the control value more than 50%) |  |  |  |
| O=c1c(Cl)cc(-c2ccsc2Br)c(-c2c(F)cccc2F)n1CC(F)F [Compound 347] | H (H shows the control value more than 50%) | H (H shows the control value more than 50%) | H (H shows the control value more than 50%) | H (H shows the control value more than 50%) |  |  |  |
| CCn1c(-c2c(F)cccc2Br)c(-n2cc(F)cn2)ccc1=O [Compound 360] | H (H shows the control value more than 50%) | H (H shows the control value more than 50%) | H (H shows the control value more than 50%) | L (L shows the control value of 50% or less) |  |  |  |
| CCn1c(-c2ccc(OC)cc2Cl)c(-n2cc(F)cn2)cc(Cl)c1=O [Compound 361] | H (H shows the control value more than 50%) | H (H shows the control value more than 50%) | H (H shows the control value more than 50%) | L (L shows the control value of 50% or less) |  |  |  |
| CCn1c(-c2c(F)cccc2F)c(-c2sccc2Br)ccc1=O [Compound 364] | H (H shows the control value more than 50%) | H (H shows the control value more than 50%) | H (H shows the control value more than 50%) | H (H shows the control value more than 50%) |  |  |  |
| CCn1c(-c2ccc(NC)cc2F)c(-n2ncc(C)c2Cl)cc(Br)c1=O [Compound 368] | H (H shows the control value more than 50%) |  |  | H (H shows the control value more than 50%) |  |  |  |
| Cc1cnn(-c2cc(Br)c(=O)n(C)c2-c2ccc(F)cc2F)c1 [Compound 411] |  |  |  |  | H (H shows the control value more than 50%) | L (L shows the control value of 50% or less) | Test D control value (powdery mildew on barley) [1]: L (L shows the control value of 50% or less); Test E control value (brown rust on wheat) (Puccinia recondita): H (H shows the control value more than 50%) |
| CCn1c(-c2c(F)cccc2F)c(-c2sc(Br)cc2Br)cc(Br)c1=O [Compound 415] |  |  |  |  | L (L shows the control value of 50% or less) | L (L shows the control value of 50% or less) |  |
| CCn1c(-c2c(F)cccc2F)c(-c2sc(Br)cc2Br)ccc1=O [Compound 417] |  |  |  |  | H (H shows the control value more than 50%) | L (L shows the control value of 50% or less) |  |
| O=c1c(Cl)cc(-c2sc(Cl)cc2Br)c(-c2c(F)cccc2F)n1CC(F)F [Compound 419] |  |  |  |  | H (H shows the control value more than 50%) | L (L shows the control value of 50% or less) |  |
| O=c1c(Cl)cc(-c2sccc2Br)c(-c2c(F)cccc2F)n1CC(F)F [Compound 420] |  |  |  |  | H (H shows the control value more than 50%) | L (L shows the control value of 50% or less) |  |
| O=c1ccc(-n2cc(F)cn2)c(-c2ccc(F)cc2Cl)n1CC(F)F [Compound 425] |  |  |  |  | H (H shows the control value more than 50%) | L (L shows the control value of 50% or less) | Test D control value (powdery mildew on barley) [1]: H (H shows the control value more than 50%); Test E control value (brown rust on wheat) (Puccinia recondita): H (H shows the control value more than 50%) |
| CCn1c(-c2ccc(F)cc2F)c(-c2ccsc2Br)ccc1=O [Compound 500] |  |  |  |  | H (H shows the control value more than 50%) | H (H shows the control value more than 50%) | Test D control value (powdery mildew on barley) [1]: L (L shows the control value of 50% or less); Test E control value (brown rust on wheat) (Puccinia recondita): H (H shows the control value more than 50%) |
| CCn1c(-c2ccc(C#N)cc2F)c(-n2ncc(C)c2Cl)cc(Cl)c1=O [Compound 507] |  |  |  |  | H (H shows the control value more than 50%) | H (H shows the control value more than 50%) |  |
